According to patent publication US9650358B2 (priority 2013, dated 2017):
pEC50: −log10 of the molar value.

tested on: H929 cells; experiment: cells; settings: Homo sapiens, NCI-H929, 24 h, read-out: H929 viability EC50

**Q.** How did the pEC50 turn out when `O=C(Nc1cc(-c2ccc3ncn(CCCc4cccc(F)c4)c3c2)c(Cl)cn1)[C@@H]1CCCNC1` [Example 312, (3R)—N-(5-chloro-4-{1-[3-(3-fluorophenyl)propyl]-1H-benzimidazol-6-yl}pyridin-2-yl)piperidine-3-carboxamide] was run?
**A.** 6.15

**Q.** How did the pEC50 turn out when `O[C@H]1CC[C@H](Nc2cc(-c3ccc4c(c3)N(Cc3cccc(F)c3)CC4)c(Cl)cn2)CC1` [Example 10, trans-4-({5-chloro-4-[1-(3-fluorobenzyl)-2,3-dihydro-1H-indol-6-yl]pyridin-2-yl}amino)cyclohexanol] was run?
**A.** 5.44

**Q.** `Fc1cccc(Cn2cnc3ccc(-c4cc(NCC5(F)CCNCC5)ncc4Cl)cc32)c1` [Example 119, 5-chloro-4-[1-(3-fluorobenzyl)-1H-benzimidazol-6-yl]-N-[(4-fluoropiperidin-4-yl)methyl]pyridin-2-amine] was tested. Which pEC50 did it give?
**A.** 5.82

**Q.** `Nc1cc(-c2ccc3ncn(Cc4cccc(F)c4)c3c2)c(Cl)cn1` [Example 49, 5-chloro-4-[1-(3-fluorobenzyl)-1H-benzimidazol-6-yl]pyridin-2-amine] was tested. Which pEC50 did it give?
**A.** 5.43

**Q.** How did the pEC50 turn out when `CCS(=O)(=O)NCC(=O)Nc1cc(-c2ccc3ncn(CC4CCOCC4)c3c2)c(Cl)cn1` [Example 287, N-{5-chloro-4-[1-(tetrahydro-2H-pyran-4-ylmethyl)-1H-benzimidazol-6-yl]pyridin-2-yl}-N^2-(ethylsulfonyl)glycinamide] was run?
**A.** 5.96

**Q.** `O=C(Nc1cc(-c2ccc3c(c2)N(Cc2cnc4c(c2)OCCO4)CC3)c(Cl)cn1)C1CCCNC1` (stereo not shown) [Example 169, N-{5-chloro-4-[1-(2,3-dihydro[1,4]dioxino[2,3-b]pyridin-7-ylmethyl)-2,3-dihydro-1H-indol-6-yl]pyridin-2-yl}piperidine-3-carboxamide] was tested. Which pEC50 did it give?
**A.** 5.62

**Q.** With `Fc1cccc(Cn2cnc3ccc(-c4cc(N[C@@H]5CC[C@@]56CCCNC6)ncc4Cl)cc32)c1` [Example 127, (1R,4R)—N-{5-chloro-4-[1-(3-fluorobenzyl)-1H-benzimidazol-6-yl]pyridin-2-yl}-6-azaspiro[3.5]nonan-1-amine] as the compound, how does the pEC50 read?
**A.** 5.55

**Q.** With `Nc1ccc(CCNc2cc(-c3ccc4ncn(Cc5cccc(F)c5)c4c3)c(Cl)cn2)cc1` [Example 75, N-[2-(4-aminophenyl)ethyl]-5-chloro-4-[1-(3-fluorobenzyl)-1H-benzimidazol-6-yl]pyridin-2-amine] as the compound, how does the pEC50 read?
**A.** 5.77

**Q.** How did the pEC50 turn out when `NCC1CCCC(CNc2cc(-c3ccc4ncn(Cc5cccc(F)c5)c4c3)c(Cl)cn2)C1` (stereo not shown) [Example 128, N-{[3-(aminomethyl)cyclohexyl]methyl}-5-chloro-4-[1-(3-fluorobenzyl)-1H-benzimidazol-6-yl]pyridin-2-amine] was run?
**A.** 5.80

**Q.** `Cn1nnc2ccc(Cn3ccc4ncc(-c5cc(NC(=O)[C@@H]6CCCNC6)ncc5Cl)cc43)cc21` [Example 305, (3R)—N-(5-chloro-4-{1-[(1-methyl-1H-benzotriazol-6-yl)methyl]-1H-pyrrolo[3,2-b]pyridin-6-yl}pyridin-2-yl)piperidine-3-carboxamide] was tested. Which pEC50 did it give?
**A.** 5.64

**Q.** How did the pEC50 turn out when `COC(=O)c1ccc(Cn2cnc3ccc(-c4cc(NC(=O)[C@@H]5CCCNC5)ncc4Cl)cc32)cc1` [Example 310, methyl 4-{[6-(5-chloro-2-{[(3R)-piperidin-3-ylcarbonyl]amino}pyridin-4-yl)-1H-benzimidazol-1-yl]methyl}benzoate] was run?
**A.** 6.44

**Q.** `NCC(O)CNc1cc(-c2ccc3ncn(Cc4cccc(F)c4)c3c2)c(Cl)cn1` (stereo not shown) [Example 80, 1-amino-3-({5-chloro-4-[1-(3-fluorobenzyl)-1H-benzimidazol-6-yl]pyridin-2-yl}amino)propan-2-ol] was tested. Which pEC50 did it give?
**A.** 5.44

**Q.** `CC(C)(O)CNc1cc(-c2ccc3ncn(Cc4cccc(F)c4)c3c2)c(Cl)cn1` [Example 79, 1-({5-chloro-4-[1-(3-fluorobenzyl)-1H-benzimidazol-6-yl]pyridin-2-yl}amino)-2-methylpropan-2-ol] was tested. Which pEC50 did it give?
**A.** 6.14

**Q.** `CC(C)(O)CCn1cnc2ccc(-c3cc(NC(=O)[C@@H]4CCCNC4)ncc3Cl)cc21` [Example 15, (3R)—N-{5-chloro-4-[1-(3-hydroxy-3-methylbutyl)-1H-benzimidazol-6-yl]pyridin-2-yl}piperidine-3-carboxamide] was tested. Which pEC50 did it give?
**A.** 6.14

**Q.** How did the pEC50 turn out when `N#Cc1cn(Cc2ccccc2)c2cc(-c3cc(NC(=O)[C@@H]4CCCNC4)ncc3Cl)ccc12` [Example 29, (3R)—N-[4-(1-benzyl-3-cyano-1H-indol-6-yl)-5-chloropyridin-2-yl]piperidine-3-carboxamide] was run?
**A.** 6.00

**Q.** How did the pEC50 turn out when `NS(=O)(=O)CC(=O)Nc1cc(-c2ccc3ncn(Cc4cccc(F)c4)c3c2)c(Cl)cn1` [Example 278, N-{5-chloro-4-[1-(3-fluorobenzyl)-1H-benzimidazol-6-yl]pyridin-2-yl}-2-sulfamoylacetamide] was run?
**A.** 6.38

**Q.** With `CCNC(=O)N1CC2(C1)C(C(=O)Nc1cc(-c3ccc4ncn(Cc5cccc(F)c5)c4c3)c(Cl)cn1)CCS2(=O)=O` (stereo not shown) [Example 197, N^8-(5-chloro-4-(1-(3-fluorobenzyl)-1H-benzo[d]imidazol-6-yl)pyridin-2-yl)-N^2-ethyl-5-thia-2-azaspiro[3.4]octane-2,8-dicarboxamide 5,5-dioxide] as the compound, how does the pEC50 read?
**A.** 5.40

**Q.** How did the pEC50 turn out when `Fc1cccc(Cn2cnc3ccc(-c4cc(NCCNc5cccnc5)ncc4Cl)cc32)c1` [Example 34, N-{5-chloro-4-[1-(3-fluorobenzyl)-1H-benzimidazol-6-yl]pyridin-2-yl}-N′-(pyridin-3-yl)ethane-1,2-diamine] was run?
**A.** 5.96

**Q.** How did the pEC50 turn out when `Fc1cccc(Cn2cnc3ccc(-c4cc(NCCNc5ccccc5)ncc4Cl)cc32)c1` [Example 66, N-{5-chloro-4-[1-(3-fluorobenzyl)-1H-benzimidazol-6-yl]pyridin-2-yl}-N′-phenylethane-1,2-diamine] was run?
**A.** 5.59

**Q.** How did the pEC50 turn out when `O=C(Nc1cc(-c2cnc3ncn(Cc4cccc(F)c4)c3n2)c(Cl)cn1)[C@@H]1CCCNC1` [Example 218, (3R)—N-{5-chloro-4-[1-(3-fluorobenzyl)-1H-imidazo[4,5-b]pyrazin-6-yl]pyridin-2-yl}piperidine-3-carboxamide] was run?
**A.** 6.72

**Q.** How did the pEC50 turn out when `Fc1cccc(Cn2cnc3ccc(-c4cc(N[C@H]5CC[C@H](NCc6cccnc6)CC5)ncc4Cl)cc32)c1` [Example 226, trans-N-{5-chloro-4-[1-(3-fluorobenzyl)-1H-benzimidazol-6-yl]pyridin-2-yl}-N′-(pyridin-3-ylmethyl)cyclohexane-1,4-diamine] was run?
**A.** 6.74

**Q.** How did the pEC50 turn out when `NCc1ccc(CNc2cc(-c3ccc4ncn(Cc5cccc(F)c5)c4c3)c(Cl)cn2)cc1` [Example 78, N-[4-(aminomethyl)benzyl]-5-chloro-4-[1-(3-fluorobenzyl)-1H-benzimidazol-6-yl]pyridin-2-amine] was run?
**A.** 5.03

**Q.** How did the pEC50 turn out when `O=C(Nc1cc(-c2ccc3c(c2)N(Cc2nc4ccccc4[nH]2)CC3)c(Cl)cn1)C1CCCNC1` (stereo not shown) [Example 161, N-{4-[1-(1H-benzimidazol-2-ylmethyl)-2,3-dihydro-1H-indol-6-yl]-5-chloropyridin-2-yl}piperidine-3-carboxamide] was run?
**A.** 5.32

**Q.** How did the pEC50 turn out when `O=C(Nc1cc(-c2ccc3ccn(Cc4cccc(F)c4)c3c2)c(Cl)cn1)[C@@H]1CCCNC1` [Example 7, (3R)—N-{5-chloro-4-[1-(3-fluorobenzyl)-1H-indol-6-yl]pyridin-2-yl}piperidine-3-carboxamide] was run?
**A.** 6.17

**Q.** With `CN1CCN(S(=O)(=O)CC(=O)Nc2cc(-c3ccc4ncn(Cc5cccc(F)c5)c4c3)c(Cl)cn2)CC1` [Example 279, N-{5-chloro-4-[1-(3-fluorobenzyl)-1H-benzimidazol-6-yl]pyridin-2-yl}-2-[(4-methylpiperazin-1-yl)sulfonyl]acetamide] as the compound, how does the pEC50 read?
**A.** 5.77
